These are yes or no findings as the source states them, for the method shown. Binding seen in cells or lysates may run through a third protein. Some binding calls cover weakened binding; strength is not graded here. For some assays here: Sequences can lack the tags named with a protein.
T1: GST-AROS (UniProt Q86WX3)
T1 sequence: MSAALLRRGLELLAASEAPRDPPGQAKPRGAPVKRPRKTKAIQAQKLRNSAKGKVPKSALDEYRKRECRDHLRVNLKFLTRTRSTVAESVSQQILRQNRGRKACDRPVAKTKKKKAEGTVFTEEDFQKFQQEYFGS

Chains of the proteins cited; added tags and fusions are not shown. Lines headed by an entry give the natural chain unless they say otherwise; changes in a name come on top. Residues count along the entry.
UniProt Q9UM11: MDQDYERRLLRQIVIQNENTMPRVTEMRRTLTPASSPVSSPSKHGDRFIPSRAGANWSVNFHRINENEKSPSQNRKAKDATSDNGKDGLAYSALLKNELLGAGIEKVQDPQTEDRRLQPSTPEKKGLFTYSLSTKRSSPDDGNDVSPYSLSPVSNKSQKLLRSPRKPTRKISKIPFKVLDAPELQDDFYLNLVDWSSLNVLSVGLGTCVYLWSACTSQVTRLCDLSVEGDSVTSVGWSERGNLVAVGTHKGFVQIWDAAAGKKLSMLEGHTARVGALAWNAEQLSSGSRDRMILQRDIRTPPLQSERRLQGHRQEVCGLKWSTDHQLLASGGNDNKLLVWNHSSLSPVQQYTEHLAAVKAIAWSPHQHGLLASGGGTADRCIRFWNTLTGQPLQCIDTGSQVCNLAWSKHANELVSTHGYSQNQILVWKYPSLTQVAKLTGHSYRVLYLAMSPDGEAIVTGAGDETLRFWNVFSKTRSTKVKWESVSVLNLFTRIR
UniProt Q96EB6: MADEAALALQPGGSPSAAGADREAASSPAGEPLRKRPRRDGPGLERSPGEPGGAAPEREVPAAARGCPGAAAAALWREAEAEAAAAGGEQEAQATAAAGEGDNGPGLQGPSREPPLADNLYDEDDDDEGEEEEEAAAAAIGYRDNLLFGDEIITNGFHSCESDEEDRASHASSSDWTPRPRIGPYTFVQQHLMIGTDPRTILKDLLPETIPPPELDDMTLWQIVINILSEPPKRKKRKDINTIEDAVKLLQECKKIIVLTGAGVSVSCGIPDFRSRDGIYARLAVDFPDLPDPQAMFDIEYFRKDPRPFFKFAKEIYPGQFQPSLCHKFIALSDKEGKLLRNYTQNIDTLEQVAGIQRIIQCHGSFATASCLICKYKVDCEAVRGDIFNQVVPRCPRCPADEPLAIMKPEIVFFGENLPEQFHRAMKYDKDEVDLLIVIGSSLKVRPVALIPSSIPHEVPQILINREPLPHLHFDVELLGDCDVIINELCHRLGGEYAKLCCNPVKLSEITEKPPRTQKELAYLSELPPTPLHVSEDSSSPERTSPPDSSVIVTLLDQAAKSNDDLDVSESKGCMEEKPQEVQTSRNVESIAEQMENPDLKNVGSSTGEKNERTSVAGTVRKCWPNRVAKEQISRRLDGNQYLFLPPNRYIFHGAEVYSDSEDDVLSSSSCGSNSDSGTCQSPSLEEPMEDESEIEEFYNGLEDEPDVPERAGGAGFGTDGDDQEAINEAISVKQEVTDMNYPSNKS
GST-SIRT1(114–217): residues 114-217 of Q96EB6

B1: Flag-AROS (in vitro translated) (protein, UniProt Q86WX3 1-136)
chain: T1 sequence

What was measured:
GST-AROS = molecular target: T1, GST-AROS; test: pull-down; GST pull-down: purified GST, GST-AROS or GST-Cdh1 (2 μg) incubated with 10 μl of in vitro-translated Flag-SIRT1∆ or Flag-SIRT1(114–217); WB with anti-Flag M2; only the target purified
GST-Cdh1 = GST-Cdh1 (UniProt Q9UM11); test: as above
GST-SIRT1(114–217) = GST-SIRT1(114–217) (UniProt Q96EB6); test: pull-down; competitive GST pull-down: GST or GST-SIRT1(114–217) and in vitro-translated Myc-Cdh1 incubated with increasing amounts of in vitro-translated Flag-AROS; WB; only the target purified
Flag-SIRT1 WT = Flag-SIRT1 WT (UniProt Q96EB6); test: co-IP; HEK293 cells cotransfected as indicated; IP with anti-Flag antibody, WB with anti-GFP antibody (Fig. 2j)
Myc-Cdh1 = Myc-Cdh1 (UniProt Q9UM11); test: co-IP; HEK293 cells transfected with Myc-Cdh1 and Flag-SIRT1 WT or Flag-SIRT1∆; IP with anti-Myc antibody, WB with anti-Flag antibody (Fig. 5b; Supplementary Fig. 2-2a under overexpression conditions)

Molecule | binding (GST-AROS) | binding (GST-Cdh1) | binding (GST-SIRT1(114–217)) | further results
Flag-SIRT1∆ (in vitro translated) (from UniProt Q96EB6 218-747) (domain or fragment) | no binding | no binding | – | –
Myc-Cdh1 (in vitro translated) (from UniProt Q9UM11 1-496) | – | – | binds | –
Flag-SIRT1(114–217) fragment (from UniProt Q96EB6 114-217) (domain or fragment) | binds | binds | – | –
GFP-Cdh1 (from UniProt Q9UM11 1-496) | – | – | – | binding (Flag-SIRT1 WT): binds
Flag-SIRT1∆ (from UniProt Q96EB6 218-747) (domain or fragment) | – | – | – | binding (Myc-Cdh1): no binding
B1 | – | – | binds | –

Source: publication PMC10318011
